According to paper PMC6212790:
This is one part of the list. At the low end of the ranking, values are background and their order means little.

target: T1, GST-Rok-C97-191 (UniProt O34857); test: protein binding microarray; details: Rok is a gene silencer of Bacillus subtilis; high values mean tight binding; most listed sequences are background and not binding sites; double strand, one strand shown;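 note: rank score from −0.5 (least bound) to 0.5 (best bound)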
T1 sequence: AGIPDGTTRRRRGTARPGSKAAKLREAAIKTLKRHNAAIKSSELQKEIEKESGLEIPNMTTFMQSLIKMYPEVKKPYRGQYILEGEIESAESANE

| Sequence | binding signal [E-score] |
| --- | --- |
| GGTTAACC | 0.109 |
| CCGTCTAC | -0.0475 |
| AAATTGTC | 0.107 |
| CCCGTCGC | -0.273 |
| GTTGCGGA | 0.0514 |
| ATTAGACC | 0.0369 |
| CCTCGGGA | -0.14 |
| CTTGTTCA | 0.0304 |
| AACATTAG | 0.196 |
| CGAGCATA | 0.059 |
| CGTGAGGC | -0.256 |
| ACGCACAA | -0.115 |
| AACTAGGA | 0.154 |
| CACCCAAG | -0.17 |
| AGTATACG | 0.219 |
| AGTCAGAA | 0.0656 |
| GTATGATA | 0.302 |
| ACCGGATC | -0.0169 |
| CGCCGCAG | -0.246 |
| CATAGCGA | 0.0301 |
| GACGTCTA | 0.207 |
| GGCTTTAC | -0.0797 |
| CAGAGCGC | -0.0288 |
| ATTGCTGG | 0.137 |
| AAGGGCCA | -0.136 |

| Sequence | binding signal [E-score] |
| --- | --- |
| CCAGGTTC | -0.286 |
| ATACTTTC | 0.238 |
| GGCCACAC | -0.181 |
| CTGGACAA | -0.166 |
| AAATAATC | 0.188 |
| ACGAGCCG | -0.253 |
| CATGGGCA | -0.053 |
| ATGGCGTA | 0.0101 |
| AACGGAGG | -0.102 |
| AGTCACAG | -0.0998 |
| TGAAATAA | 0.116 |
| AAAGCAAG | -0.0178 |
| CAAGCCCA | -0.0345 |
| ATCTATTA | 0.353 |
| AAACACTG | -0.111 |
| GCGTGCAA | -0.134 |
| AGAGGCAT | 0.0046 |
| AAAGGGAT | -0.0928 |
| ATAATCAT | 0.152 |
| CAGGACCA | -0.177 |
| ACGTAGAA | 0.162 |
| CGAGCCGA | -0.177 |
| CTCGGGGA | -0.344 |
| GGGCTGGA | -0.0859 |
| ACTTCGGC | -0.124 |

| Sequence | binding signal [E-score] |
| --- | --- |
| GATCCAAC | -0.164 |
| GTCATGTA | 0.182 |
| CGCGTTCC | -0.0762 |
| ATACGATG | 0.147 |
| ACAGACAT | 0.0121 |
| ACGCCGCG | -0.137 |
| CTGTCGCC | -0.168 |
| AGTAAGGA | 0.0919 |
| CGCTCAAG | -0.0375 |
| CAAGTAAC | -0.056 |
| ATTGTAGG | 0.0264 |
| AAGGTCAA | -0.11 |
| ATGCGGGG | -0.315 |
| AGCCGCTG | -0.194 |
| CATCGGGA | -0.0177 |
| TCATCCGA | -0.094 |
| CAACTACC | 0.271 |
| CCGCTTAG | -0.103 |
| ACCCAAAT | -0.00366 |
| CTCAGTCC | -0.232 |
| CCGCCAAC | -0.374 |
| CCCGTTTA | -0.0976 |
| GCGACCAC | -0.0405 |
| GGGAAGGA | -0.18 |
| ACTTTGGG | 0.065 |

| Sequence | binding signal [E-score] |
| --- | --- |
| ATGAGCCC | -0.262 |
| AGGCGGTC | -0.357 |
| TATTGACA | 0.0261 |
| AGCAGTGG | -0.264 |
| GGGCCCAC | -0.356 |
| TAGTAGAA | 0.433 |
| ACATCCTG | -0.137 |
| ACTTATCG | 0.173 |
| CTACAAAG | 0.0557 |
| ACTCCCCG | -0.0535 |
| ACACACGC | -0.0942 |
| CTCGGATA | 0.101 |
| TCCGTAAA | -0.0596 |
| CTCTTCCA | -0.287 |
| GATATGGA | 0.0314 |
| ATGTCGTC | -0.229 |
| AGGGAAAT | 0.0705 |
| ACCATTGA | 0.125 |
| GACAAGCA | -0.109 |
| CTATGTGC | -0.0872 |
| CTTCCTGC | -0.225 |
| ACGTTACA | 0.23 |
| CTATCTCA | 0.178 |
| CTTTATTA | 0.159 |
| AAATCAAT | 0.124 |

| Sequence | binding signal [E-score] |
| --- | --- |
| ATATTAAG | 0.297 |
| CACTCAAA | -0.0724 |
| CAACGACA | 0.109 |
| CTTACTTA | 0.189 |
| AACATGCA | 0.147 |
| TGCGATAA | 0.116 |
| CATAGTGG | -0.018 |
| CGTTTAAG | -0.082 |
| TATCCGGA | -0.0785 |
| CGTAAGGA | -0.0918 |
| ATCTCGAA | 0.0799 |
| AGATGAAA | -0.0885 |
| TATTATGA | 0.181 |
| CAAGCTCA | -0.0409 |
| CACGGTAA | 0.131 |
| CTACCAAA | 0.247 |
| GCGTACCA | -0.205 |
| CATTGGCA | -0.218 |
| CGGGCGTC | -0.296 |
| GATGAAGA | -0.0669 |
| GCCCCTAC | -0.105 |
| ATAATTGC | 0.26 |
| AGCGCTAG | 0.154 |
| CTGGATTA | -0.0333 |
| ATCGAGGA | -0.0332 |

| Sequence | binding signal [E-score] |
| --- | --- |
| CGCCAAAG | -0.161 |
| AACGTATT | 0.254 |
| CCACATGG | -0.118 |
| GCACCCGC | -0.185 |
| ATAGCTTA | 0.169 |
| ACCGGCAC | -0.121 |
| ACGCCGGA | -0.187 |
| ATACTTAA | 0.00261 |
| ATCCGAGG | -0.035 |
| CGTTTCAG | -0.0327 |
| AAAGCTTA | 0.0996 |
| AAAAGTTA | 0.233 |
| AAATTTAC | 0.38 |
| TAGTAAAA | 0.37 |
| GTTACACA | 0.142 |
| ATGGACCG | -0.194 |
| AGGATCTA | 0.183 |
| GGCAACAC | -0.176 |
| GCGCCAGA | -0.342 |
| CATCCTCC | -0.302 |
| ACCACAGA | 0.0469 |
| GAGATTGA | -0.0176 |
| ACGGGCGC | -0.156 |
| AAAACATA | 0.28 |
| TCACGAGA | -0.274 |

| Sequence | binding signal [E-score] |
| --- | --- |
| ACCGCATA | 0.0586 |
| AGGAATCG | 0.101 |
| GATGAGCC | -0.152 |
| GAAAGGAA | -0.159 |
| GCGAAACC | -0.131 |
| CCATGAGA | -0.0411 |
| CCGTATCG | 0.044 |
| CCCTATAA | 0.208 |
| ACGGTGAC | 0.183 |
| ATTTGACC | -0.0639 |
| GCAATGAC | -0.114 |
| TGTACACA | 0.092 |
| ACGAATAC | 0.164 |
| AAGGCAGC | 0.0072 |
| CGACTTAG | -0.0242 |
| AGGAATAC | -0.0617 |
| CATCCATC | -0.0668 |
| ATCTTTGC | -0.0493 |
| CCACTACC | -0.0241 |
| TCTAATAA | 0.105 |
| AAAGAACC | -0.0601 |
| GACGGCGA | -0.075 |
